The values below come from PubChem BioAssay AID1346428 (National Center for Advancing Translational Sciences (NCATS), 2018).

In all, about 48,000 compounds went through this assay and about 1,200 (2.5%) were called active. Not shown: some 2% with an inconclusive outcome.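 How the source made its calls: active means activation of at least 60% and not above a set upper limit (about 1 call in 100 departs from these limits); inconclusive means activation of 40% to 60%, or above that upper limit; inactive means activation under 40%.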 This is one part of the list. *1 amine or outer side, *2 acyl side, *3 side chain or, on linkers, in order; H or OH if unused. Where a SMILES comes first, the peptide text is derived from it. Bridges are numbered along the chain shown (N, C = ends). [ ]: non-standard residue; d: D form. The star is where a group is joined. ξ: configuration not given here. ΔAla(3-NHCONH2) = NC(=O)NC=C(N)C(=O)O; X1 = NC1=NCCC(C(N[*:1])C(=O)[*:2])N1; ξβ3hOrn = NCCCC(N)CC(=O)*; Dap = NC[CH](N)C(=O)O

UniProt O75388, sequence (O75388 whole entry, looked up): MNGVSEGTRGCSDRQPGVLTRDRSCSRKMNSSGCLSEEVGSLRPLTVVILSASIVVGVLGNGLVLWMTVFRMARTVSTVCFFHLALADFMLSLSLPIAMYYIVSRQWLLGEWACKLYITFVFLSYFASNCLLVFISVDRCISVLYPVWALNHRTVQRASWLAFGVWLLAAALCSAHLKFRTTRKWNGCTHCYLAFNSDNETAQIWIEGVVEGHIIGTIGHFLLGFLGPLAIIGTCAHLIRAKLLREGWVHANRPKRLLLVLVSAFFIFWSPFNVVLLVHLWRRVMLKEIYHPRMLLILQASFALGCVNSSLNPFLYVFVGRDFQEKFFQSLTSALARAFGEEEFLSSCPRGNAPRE

The target in the assay is Probable G-protein coupled receptor 32 (Homo sapiens) (UniProt O75388). Kind of assay: qHTS for Agonists of Human Resolvin D1 Receptor DRV1. Further: 0% is about no effect. To be noted: CHO-K1 GPR32 beta-arrestin PathHunter luminescence, 90 min; at 76.9 µM; hits give high values; zero percent set by DMSO-only wells. The procedure, abridged:
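Step 1: seed CHO-K1 GPR32 beta-arrestin cells, 2,500/well, overnight at 37 °C. Step 2: add compounds, 90 min at 37 °C. Step 3: detection reagent, 1 h ambient, then luminescence.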
In general terms: Quantitative high-throughput screening tests each substance at several concentrations.
For the molecule `Cc1ccc(-c2nc3ccccn3c2Nc2ccccc2C)s1`, the activation was inactive: 1.63%.

Consider `COC(=O)C1=C(C)NC(C)=C(C(=O)OC)C1c1ccccc1[N+](=O)[O-]`, for which the activation is inactive: -6.08%.

Turning to `Cc1c(C(=O)N2CCCCCC2)c(S(=O)(=O)NCc2ccc(Br)cc2)c(C)n1C`, the activation was inactive: -14%.

Take `COc1ccc(Nc2cc(C(=O)NC3CCC(C)CC3)c3ccccc3n2)cc1OC` (centres undefined): the activation was inactive: 5.36%.

As for `COC(=O)c1ccc(NC(=O)NCCn2nnc3cc(S(=O)(=O)N(C)C)ccc32)cc1`, the activation is inactive: 30.1%.

Regarding `CCOc1ccc(CNC(=O)c2ccc3nc(C(C)C)oc3c2)cc1`, the activation was inactive: -22.3%.

With `CCOc1ccc(C2Nc3c(C)cccc3-c3cc(C)nn32)cc1` (centres undefined), the activation is inactive: -7.91%.

Take `CCOc1ccccc1C(=O)Nc1c(C(=O)Nc2ccc(F)cc2)oc2ccccc12`: the activation was inactive: -8.74%.

Regarding `Cn1c(=O)c(=O)n(C)c2cc(S(=O)(=O)CCC(=O)Nc3ccc(F)cc3)ccc21`, the activation is inactive: -19.5%.

In the case of `COc1ccc(S(=O)(=O)NCC(c2ccco2)S(=O)(=O)c2cccs2)cc1C` (centres undefined), the activation was inactive: -2.4%.

As for `Cc1oc2ncnc(N3CCOCC3)c2c1C(=O)N(Cc1ccccc1)C(C)C`, the activation was inactive: -13.4%.

For `Cc1ccc(C2=NN(CC(=O)NCCC(C)C)C(=O)CC2)cc1`, the activation was inactive: -24.8%.

In the case of `CCOC(=O)c1cc(OC(=O)c2ccc(C)cc2)n(-c2ccccc2)n1`, the activation was inactive: 5.02%.

In the case of `COc1cccc(-c2nnc(-c3ccccc3NC(=O)c3cccc(C(F)(F)F)c3)o2)c1`, the activation was inactive: 9.18%.

With `CCOc1ccc(NC(=O)c2cnn3c2NC(c2cccc(OC)c2)=CC3c2ccccc2)cc1` (centres undefined), the activation is inactive: -24.9%.

As to `O=c1c(S(=O)(=O)c2ccccc2)cn(Cc2cccc(F)c2)c2cc(N3CCOCC3)c(F)cc12`, the activation was inactive: -10.5%.

With `COc1ccc(OC(=O)c2nc(SCc3ccc(F)cc3)ncc2Cl)cc1`, the activation was inactive: -19.7%.

On to `Cn1c(=O)n(C)c2cc(N3CCOCC3)c(NC(=O)c3ccccc3Br)cc21`, for which the activation is inactive: -21.3%.

As to `CCOC(=O)c1ccc(NC(=O)c2c(NCc3cccs3)sc3c2CCCC3)cc1`, the activation was inactive: -14.1%.

On to `CCc1ccc(S(=O)(=O)c2cn(C)c3cc(N4CCC(C)CC4)c(F)cc3c2=O)cc1`, for which the activation was inactive: -4.31%.

With `COc1ccc(NC(=O)c2ccco2)cc1NC(=O)COc1ccccc1`, the activation was inactive: -4.23%.

`Cc1ccc(C(=O)Nc2nnc(S(=O)(=O)N3c4ccccc4CC3C)s2)cc1` (centres undefined): the activation was inactive: 30.4%.

Turning to `COc1cccc(CNC(=O)c2cc(S(=O)(=O)N3CCCCC3)cn2C)c1`, the activation was inactive: 11.6%.

Consider `COc1ccc(CNC(=O)CN2C(=O)CSc3ccc(S(=O)(=O)N4CCOCC4)cc32)c(OC)c1`, for which the activation is inactive: -19.1%.

With `CC(=O)Nc1ccc(NC(=O)CSc2nc3ccccc3nc2N2CCC(C)CC2)cc1`, the activation was inactive: 19.5%.

As for `Cc1c(Cl)cccc1NC(=O)CN(CCc1ccccc1)S(=O)(=O)c1ccccc1`, the activation was inactive: 19.4%.

Consider `CCOc1ccc(CNCc2c(C(=O)O)n(Cc3ccc(C)cc3)c3cc(C)ccc23)cc1`, for which the activation is active: 64.3%.

Take `Cc1cccc(C(=O)N2CCc3cc(CNS(=O)(=O)c4ccc(Cl)s4)ccc32)c1`: the activation is inactive: 3.57%.

In the case of `Cc1ccccc1OCC(=O)Nc1ccc(-c2nc3ncccc3o2)cc1`, the activation was inactive: -8.4%.

For `CCCCN(CC)CCNC(=O)c1cc2c(=O)[nH]c3ccccc3c2n1C`, the activation is inactive: 10.4%.

Take `Cc1ccccc1Nc1ncnc2c1cnn2C`: the activation is inactive: 8.88%.

Turning to `O=C(NCc1ccccc1)c1ccc(CSc2nc3cccnc3n2Cc2cccc(F)c2)cc1`, the activation is inactive: -18.2%.

On to `CCCCn1nc(NC(=O)c2cccc(Cl)c2)c2cc3ccccc3nc21`, for which the activation is inactive: -7.15%.

`Cc1ccccc1NS(=O)(=O)c1ccc2[nH]cc(C(=O)N3CCCCC3)c(=O)c2c1`: the activation was inactive: -2.18%.

In the case of `COc1ccc(C)cc1-n1nnc(-c2nc(-c3ccccc3Cl)no2)c1N`, the activation was inactive: -12.3%.

For the molecule `CCCCn1c(NCc2ccc(OC)cc2O)nc2ccccc21`, the activation was active: 70.1%.

Regarding `O=C(NCc1ccc(F)cc1)c1ccc2c(O)c(S(=O)(=O)c3ccccc3)c(=O)[nH]c2c1`, the activation was inactive: -18.5%.

For the molecule `Cc1ccccc1CN1C(=O)c2ccccc2Sc2ccc(C(=O)N3CCCC3)cc21`, the activation is inactive: -25%.

In the case of `CCCc1nc2ccccc2n2c(-c3ccccc3)c3c(=O)n(C)c(=O)n(C)c3c12`, the activation is inactive: -25.5%.

Turning to `CC(C)c1ccc(C(=O)Nc2cc(-c3ccccc3F)nn2-c2ccccc2)cc1`, the activation is inactive: -1.08%.

As for `CCN(C(=O)c1coc(=O)c2ccccc12)c1ccccc1C`, the activation is inactive: -0.831%.

For `Cc1ccc(-c2nnn3c2nc(NCCc2ccc(Cl)cc2)c2ccccc23)cc1`, the activation was inactive: 37.8%.

`CCCOc1ccc(CNC(=O)Cn2ncn3c(cc4sc(CC)cc43)c2=O)cc1`: the activation was inactive: -4.98%.

Take `CCC1CCCCN1CC(=O)Nc1cc(C)c2c(=O)oc3ccccc3c2n1` (centres undefined): the activation was inactive: -6.14%.

Take `O=C(CSc1nc2c([nH]c3ccccc32)c(=O)n1-c1ccc(Cl)cc1)N1CCOCC1`: the activation is inactive: 2.2%.

Consider `Cc1cc(C)cc(NC(=O)C2CCCN(C(=O)c3cnn(-c4ccccc4)c3-n3cccc3)C2)c1` (centres undefined), for which the activation was inactive: 10.5%.

Consider `Cc1cccc(NC(=O)CSc2c(C)cnc3c2c(=O)n(C)c(=O)n3C)c1C`, for which the activation is inactive: 16.1%.

`O=S(=O)(NCC(c1ccco1)N1CCOCC1)c1cc(F)ccc1F` (centres undefined): the activation was inactive: -3.12%.

As for `Cc1ccc(NC(=O)N2CCC(c3ccccc3)C2)cc1C` (centres undefined), the activation is inactive: -6.34%.

As to `Cc1ccc(-c2nonc2NC(=O)c2ccc(F)cc2)cc1C`, the activation is inactive: 16.7%.

In the case of `COc1cc(C(=O)NCC(c2ccco2)S(=O)(=O)c2ccccc2)cc(OC)c1OC` (centres undefined), the activation is inactive: -5.64%.

On to `O=C(CCc1ccccc1)N(Cc1cccnc1)c1nc2c(F)cccc2s1`, for which the activation was inactive: -28.1%.

On to `CCc1nn(C(CC)C(=O)NCc2ccc(F)cc2)c(=O)c2cc3occc3n12` (centres undefined), for which the activation was inactive: -5.72%.

For the molecule `O=C(c1cc2c(s1)-c1ccccc1OC2)N1CCN(c2ccccc2)CC1`, the activation was inactive: -29.9%.

On to `CC1=C(C(=O)Nc2ccccc2)C(CC(C)C)n2nc(SCc3ccccc3C)nc2N1` (centres undefined), for which the activation was inactive: 2.4%.

Take `CCCOc1ccc(C(=O)N(Cc2ccc(N(C)C)cc2)CC2CCCO2)cc1` (centres undefined): the activation is inactive: -26%.

Take `NCCCC(N)CC(=O)NCC1NC(=O)C(CO)NC(=O)C(N)CNC(=O)C(C2CCN=C(N)N2)NC(=O)C(=CNC(N)=O)NC1=O` (stereo not drawn) (H-[Dap]S[Dap](ξβ3hOrn)[ΔAla(3-NHCONH2)][X1]; lactam 1-C; configuration not given here): the activation is inactive: 7.39%.

`Cc1ccc(C(=O)Nc2ccc(OCc3cc(=O)n4c(C)csc4n3)cc2)cc1`: the activation is inactive: 3.91%.

As for `CCCN(CCC)CCCNC(=O)Cn1ncc2c3ccccc3n(Cc3ccccc3)c2c1=O`, the activation was inactive: -5.69%.

Regarding `Cc1ccc(NC(=O)Cc2csc(C)n2)c(C)c1`, the activation is inactive: -7.47%.

With `COc1cc2c(cc1O)CC[C@@H]1[C@@H]2CC[C@]2(C)[C@@H](O)CC[C@@H]12`, the activation is inactive: -25.2%.

Consider `Cc1nc(-c2ccc(Cl)cc2)sc1CCNC(=O)c1cccs1`, for which the activation was inactive: 36.6%.

`Cc1cccc(NC(=O)CSc2nncn2C)c1`: the activation is inactive: -3.65%.

As for `CCCOc1ccc(-c2nc(SC)[nH]c(=O)c2C#N)cc1OC`, the activation was inactive: -0.127%.

For the molecule `CCN(CC)CCN(C(=O)c1ccco1)c1nc2ccc(Br)cc2s1`, the activation is inactive: 44.4%.

`CC(=O)Nc1nonc1-c1nnc(SCC(=O)Nc2cc(C)cc(C)c2)n1-c1ccccc1`: the activation was inactive: -6.55%.

With `Cc1ccc(S(=O)(=O)c2c(Nc3cc(F)ccc3F)sc(C(=O)c3ccc(F)cc3)c2N)cc1`, the activation is inactive: -11.3%.

Regarding `O=C(c1ccc2c(c1)N(Cc1ccccc1)C(=O)c1ccccc1S2(=O)=O)N1CCCCCC1`, the activation was inactive: -23.1%.

Take `Cc1ccccc1Cn1c2ccccc2c2cnn(CC(=O)NCCc3ccccc3)c(=O)c21`: the activation was inactive: -6.59%.

As to `COc1cc(-c2noc(CCC(=O)Nc3cc(C)ccc3C)n2)cc(OC)c1OC`, the activation was inactive: 6.98%.

Regarding `COc1ccc(NC(=O)C(Cc2ccccc2)n2cccc2)cc1OC` (centres undefined), the activation was inactive: -8.38%.

`Cc1ccc(-n2ncc(C(=O)NCCc3c[nH]c4ccccc34)c2C2CCN(C(=O)OC(C)(C)C)CC2)cc1C`: the activation is inactive: 3.21%.

Take `COc1ccc(NC(=O)CCS(=O)(=O)c2ccc3nc(C)sc3c2)cc1Cl`: the activation was inactive: -2.04%.

On to `CCn1c(=O)c2sccc2n2c(CCC(=O)N3CCN(c4ccc(C(C)=O)cc4)CC3)nnc12`, for which the activation was inactive: 1.24%.

On to `Cc1ccccc1C(=O)N(Cc1nc(-c2ccc(Cl)cc2)no1)C(C)C`, for which the activation was inactive: -11.7%.

For `CNC(=O)c1c(NC(=O)/C=C/c2ccccc2Cl)sc2c1CCC2`, the activation was inactive: 0.48%.

On to `Cc1ccc(OC(=O)CSc2nnc(-c3cccs3)o2)cc1`, for which the activation was inactive: 4.83%.

In the case of `CCC(=O)Nc1ccc(CC)cc1-c1nc2ccccc2n(Cc2ccccc2)c1=O`, the activation was inactive: -24.6%.

For the molecule `COc1ccc(C(=O)c2oc3ccccc3c2NC(=O)COc2cccc(C)c2C)cc1`, the activation was inactive: -6.36%.

With `O=C(Cn1c(-c2cccs2)cc2cc(Cl)ccc21)N1CCN(c2ccccc2F)CC1`, the activation was inactive: 0.12%.

On to `CC(NC(=O)CN(c1ccc(Cl)cc1Cl)S(=O)(=O)c1ccccc1)c1ccccc1` (centres undefined), for which the activation is inactive: -30.5%.

Regarding `CC1CCC(NC(=O)c2cc3c(Cl)nc4ccccc4c3s2)CC1` (centres undefined), the activation was inactive: 14.4%.

Consider `O=C(Cn1ccc2cc(S(=O)(=O)N3CCCCC3)ccc21)NCc1cccc(Cl)c1`, for which the activation was inactive: 19.2%.

Take `Cc1cc(S(=O)(=O)NCC(c2ccco2)S(=O)(=O)c2ccccc2)ccc1F` (centres undefined): the activation was inactive: -14.1%.
